Measured values as given in PubChem BioAssay AID493208 (National Center for Advancing Translational Sciences (NCATS), 2011).
Among all 44,000 compounds or so, about 340 (0.77%) were called active. Roughly 5% stayed inconclusive and do not appear here. Calls follow the shape of the dose curve; as a rule, active = well fitted inhibition curve with a large enough effect; inconclusive = small, poorly fitted or top-dose-only effect; inactive = flat fitted curve, though single readings scatter. This is one part of the list.

Experiment: Acumen qHTS Assay for Inhibitors of the mTORC1 Signaling Pathway in MEF (Tsc2-/-, p53-/-) Cells: Sytravon;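 also: plate controls were DMSO for no effect and rapamycin for full effect; nearly all actives have a fitted effect of over 50% in size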
Settings: phospho-rpS6 immunofluorescence/PI, 24 h; series mostly up to 38.3 µM; activity change, negative = inhibition: at the top concentration
How it was run: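 Read-out: phospho-S6 Alexa-488 intensity over PI intensity per well, scored as % active cells using thresholds from rapamycin (7.5 nM) and DMSO controls. Tsc2-/-, p53-/- MEFs exposed to compound for 24 h; PI cell count recorded as viability.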

Activity change, negative = inhibition, inactive:
COc1ccc(CCNC(=O)C(C)n2c(=O)cc(C(F)(F)F)c3c(C)nn(C)c32)cc1OC (stereo not given) -8.55%
Cc1cc(C)cc(Oc2nc3c(C)cccn3c(=O)c2/C=C(\C#N)c2nc3ccccc3s2)c1 -29.7%
COc1ccc(N2CCN(Cc3nnc(-c4cccc(Br)c4)o3)CC2)cc1 0.066%
CCS(=O)(=O)N1CC(=O)N(c2ccc(Cl)cc2)C(C)(C(=O)NC2CCCCCC2)C1 (stereo not given) -4.48%
COc1ccc(CCn2c3c(c(=O)[nH]c2=O)C(NC(=O)c2ccc(C(C)(C)C)cc2)(C(F)(F)F)C(=O)N3)cc1OC (stereo not given) -18.9%
COc1ccccc1Cc1nc2ccccc2nc1SCC(=O)N1CCN(c2ccccc2)CC1 0%
Cc1ccc(C(C)C)c(OCCSc2nc3ccccc3n2CC(O)CO)c1 (stereo not given) -0.207%
CC(=O)c1cc(-c2ccc(F)cc2)n(CC(=O)Nc2cc(C)cc(C)c2)c1C 0.851%
COc1cccc(NC(=O)/C(C#N)=C/c2c(C)n(Cc3ccc(Cl)cc3)c3ccccc23)c1 1.38%
CC(C)Cn1c(-c2ccc(S(=O)(=O)N3CCOCC3)cc2)csc1=Nc1cc(Cl)ccc1Cl 5.56%
O=C(NCc1ccco1)c1ccc2c(c1)N(Cc1ccc(Cl)cc1)C(=O)c1ccccc1S2 6.04%
CCOc1ccc(Nc2nc3c(S(=O)(=O)c4ccc(C(C)C)cc4)nnn3c3ccsc23)cc1 -0.755%
Cc1cc2nc(-c3ccc(NC(=O)c4cc5ccccc5o4)cc3)oc2cc1C -0.28%
Cc1sc2ncn(CC(=O)Nc3ccc(C(C)C)cc3)c(=O)c2c1S(=O)(=O)N1CCN(c2ncccn2)CC1 -18.2%
CC1(C)N=C(SCc2ccccc2Cl)c2ccccc2N1 -2.66%
Cc1ccc(S(=O)(=O)c2nnn3c2nc(NC(C)C)c2cc(Cl)ccc23)cc1C 0.0473%
Cc1cccc(-c2noc(-c3cccnc3NCc3ccc(Cl)cc3)n2)c1 2.77%
COc1ccc2c(c1)sc1ncc(C(=O)NCc3ccccc3F)c(=O)n12 0.782%
Cc1ccccc1C(=O)N1CC(=O)Nc2ccc(Cl)cc2C1c1ccccc1 (stereo not given) 5.57%
O=C(c1cccc(Cl)c1)N1c2nc(-c3ccco3)nn2C2(CCCCC2)[C@@H]2CCCC[C@@H]21 0.52%
CCOc1ccc(NS(=O)(=O)c2ccc(C(=O)N(C)C)s2)cc1 14.3%
C#CCn1c(=NC(=O)c2ccc3c(c2)OCCO3)sc2cc(OC)c(OC)cc21 14.2%
COc1ccc(CCNC(=O)CCCCn2c(=O)c3ccccc3n(CC(=O)Nc3c(C)cccc3C)c2=O)cc1OC -6.43%
CCOC(=O)c1c(C)[nH]c(C)c1S(=O)(=O)NCC(=O)Nc1cccc(C#N)c1 6.87%
COc1ccc(S(=O)(=O)N2CCC(C(=O)Nc3ccccc3)CC2)cc1OC -9.26%
